Assay results reported in paper PMC6911104.
These are yes or no findings as the source states them, for the method shown. In cells and extracts the contact can be indirect. Some results given as binding are weak or reduced against the parent protein; the word gives no strength. For some assays here: Tags and fused reporters may be left off the sequences shown. Blank lines part the entries; values can stand above or below the molecule they belong to.

Chains of the proteins cited; added tags and fusions are not shown. Lines headed by an entry give the natural chain unless they say otherwise; changes in a name come on top.
UniProt O60934: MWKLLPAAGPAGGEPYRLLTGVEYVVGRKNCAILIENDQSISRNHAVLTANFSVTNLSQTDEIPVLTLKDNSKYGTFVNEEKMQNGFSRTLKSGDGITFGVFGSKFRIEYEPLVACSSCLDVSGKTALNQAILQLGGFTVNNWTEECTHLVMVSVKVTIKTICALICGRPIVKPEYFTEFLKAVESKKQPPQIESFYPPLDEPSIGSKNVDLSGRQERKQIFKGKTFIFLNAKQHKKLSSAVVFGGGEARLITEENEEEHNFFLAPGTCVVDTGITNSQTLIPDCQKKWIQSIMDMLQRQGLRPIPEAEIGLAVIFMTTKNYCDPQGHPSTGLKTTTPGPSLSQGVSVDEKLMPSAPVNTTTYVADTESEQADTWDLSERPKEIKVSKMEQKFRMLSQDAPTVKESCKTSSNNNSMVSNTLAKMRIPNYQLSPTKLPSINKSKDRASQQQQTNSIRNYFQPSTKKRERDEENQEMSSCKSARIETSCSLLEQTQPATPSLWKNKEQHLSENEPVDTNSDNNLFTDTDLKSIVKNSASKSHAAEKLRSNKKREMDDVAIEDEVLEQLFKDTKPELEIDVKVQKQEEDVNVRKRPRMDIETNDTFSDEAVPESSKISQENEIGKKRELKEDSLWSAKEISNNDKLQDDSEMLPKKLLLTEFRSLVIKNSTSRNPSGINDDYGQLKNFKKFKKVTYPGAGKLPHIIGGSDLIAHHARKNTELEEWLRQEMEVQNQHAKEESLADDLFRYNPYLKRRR
UniProt P45973: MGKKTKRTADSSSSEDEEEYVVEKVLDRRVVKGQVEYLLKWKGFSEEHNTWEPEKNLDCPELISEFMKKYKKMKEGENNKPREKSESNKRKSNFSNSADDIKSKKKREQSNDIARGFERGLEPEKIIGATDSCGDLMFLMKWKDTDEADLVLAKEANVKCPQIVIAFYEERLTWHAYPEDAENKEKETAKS

Experiments:
[1] = biological target: NBS1 (human, endogenous) (human (endogenous in MRC5)) (UniProt O60934); assay: condition: only lysate treated with 10 U alkaline phosphatase; co-IP; human whole-protein lysates incubated 1 h at 37 °C with 10 U alkaline phosphatase before immunoprecipitation (anti-HP1α IP for NBS cells, blot with C-terminal anti-NBS1)
[2] = biological target: NBS1 (human, endogenous) (human (endogenous in MRC5)) (UniProt O60934); assay: co-IP; whole-cell lysates of human fibroblasts (MRC5 untreated or 5 Gy X-rays, 0.5 h; NBS cells; NBS cells expressing NBS1 S343A); IP with anti-HP1α or anti-NBS1 (A-2 N-terminal, B-5 C-terminal), protein A/G agarose, 4 °C, washes in NP-40 lysis buffer
[3] = biological target: HP1α (human, endogenous) (human (endogenous in MRC5 and NBS fibroblasts)) (UniProt P45973); assay: as above
[4] = biological target: HP1a-FLAG (Drosophila melanogaster) (UniProt P05205); assay: co-IP; extracts of S2 cells overexpressing HP1a-FLAG; anti-FLAG M2 affinity agarose, 2 h at 4 °C, IP buffer (50 mM Tris-HCl pH 7.5, 150 mM NaCl, 1% Triton, 1 mM EDTA); blots for endogenous Rad50, Mre11, Nbs
[5] = biological target: T1, GST-HP1a^CSD (Drosophila melanogaster) (UniProt P05205); assay: pull-down; GST-HP1a proteins on glutathione Sepharose beads (4 μM) incubated with 30 μg extract of S2 cells transfected with Nbs-HA, IP buffer with 10% glycerol, 2 h at 4 °C; Nbs detected with anti-HA, Rad50 and Mre11 with specific antibodies; only the target purified
T1 sequence: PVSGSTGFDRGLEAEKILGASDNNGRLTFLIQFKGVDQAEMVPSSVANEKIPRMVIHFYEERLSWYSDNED

[6] = biological target: GST-HP1a^I191E (Drosophila melanogaster) (UniProt P05205); assay: as above
[7] = biological target: GST-tagged full-length (FL) HP1a (1-206) (Drosophila melanogaster) (UniProt P05205); assay: as above

Molecule: HP1α (human, endogenous) (from UniProt P45973 1-191)
- binding [1]: no binding
- binding [2]: binds

Molecule: NBS1^S343A (from UniProt O60934 1-754)
- binding [3]: no binding

B2: Mre11 (Drosophila, endogenous) (protein, UniProt Q9XYZ4 1-620)
chain: MNGTTTAEQDADNVIRILVATDNHLGYGEKDAVRGEDSFTAFEEILELAVSEDVDMILLGGDLFHDAVPSQNALHKCIELLRRYTFGDRPVSLEILSDQGQCFHNAVNQSVNYEDPNLNIAIPVFSIHGNHDDPSGFGRLSSLDLLSTSGLVNYFGRWTDLTQVEISPVLMRKGESQLALYGLSHIHDGRLARLIKDFKVKFNCPENVANGEDGNESKEEEDWFHLLVVHQNRADRGPKNYLPEDLLPSFLHLVIWGHEHDCRIEPEENAKKRFYVSQPGSSVPTSLSEGEAKKKHVGLLEIYKGKFKLKPLPLETVRPFVYESVVLADHADELGLVEGDASTKVFKFAQERVEAMIERAVAQHTGHPKQPTLPLIRLRLLYTDESCMFNAIRFGEMLSTRVANVQDVVQFSKVVKRTKTEAVNLDKEALRRALEADNATRVEELVDRYFEEAKSNKPLKLFHSKALAEMTYRLLEQRDADAAENIVKFYKEKAVDHLMEAMPNDENIDEELERFRALHKHGDLLKMLDTQGLKVKKEEKSMSVLGSEVNVSTAPATGRGAARGRGTARTRAGATAATRGKGQLDVTVSSTRTSGRQQTLLSSLMGSRNTASYVISDDSD
- binding [4]: binds
- binding [5]: binds
- binding [6]: binds
- binding [7]: binds

Second part, the molecule after the results:

- binding [4]: binds
- binding [5]: binds
- binding [6]: binds
- binding [7]: binds
B1: Rad50 (Drosophila, endogenous) (protein, UniProt Q9W252 1-1318)
chain: MSSIESLSIQGIRSFGTYADDLQSIKFSSPVTLILGENGCGKTTVVECLKYALTGECPPGSDRGKSFVHDPKIFGLNEVLAQIKMQVRDRRGAQVSICRTMKVSKKRNKMSFETMDSTINFLTGAGQSKREKQDSLSGRSVDIDVAISDFMGVSKAIINNVLFCHQEDSSWPLDESKKLKEKFDAIFGITEYNKALDKIIKLRKEAMEELKIKEANIKHVAYLKQEMEVKTLNLQKAQRKCDAIKAQCSECEEEMKPIEARLVEIRNVEFEIGKYQAQKVEMDTKHKNCKDQISTLTLKIKKPFRGTLDELDQEISNFDQRMLEMRQKRTEVEGDLSQIKRSSVAEQEKLGTQDRKHCLAKQRHQSELACRAQLLKRVKEFCRELHIPIDCDLVEQPEKMGEVLRDIEAMIITKHCEITEIVEQNEKADRSRQVKIDELRIELTKSEQSVTAQEKQRESSKRESETLGVEIKKIETSMQDLKKLEKEINEVNELYESATKNIDQQAIKDAIARKKASIAENQIQFKKLDEQLTFLGSMAKLVAECSLKQKELDKKNQEVHRVRSRHSDHFGKLFKEPITCNYRRSMQVVYEKLRREIQELNEKANTQKLKEQSYEIKRKNLISDISRMEKELKDSEELIYQKCRSTPYDDLLERSKTTISKLQFDHGALKSSEALYKKYIQKMDEEPSCPLCHHNMTSDEACDLTSELTDEIQKLPDNITRAEKALKAEQIKYENLLQLKPTILKVKELKDSLPQKKEELKKVEELLGDSVSEYETLIALIGEPTHNMELANSMMGDMSLLDEALKDSARLTKDLDLQKGQLPASYDSSVSMDDLQAEKSKVSKELETERKELESAQNAVQQQMDALNRLREKKNSLKDRQIHLREGLQSLPQLKERLEKLNSFLTTVASEISELKAKIQPLKLNLRAAIEEKERLKKSESEKLAQLNSKYNSYKSTDHDIQRLNKEAEDYAKLDLRNEIKKLDEIIMASKDKLRKLEAEISLKTDELETIKTECSNQQTVERDLKDNRELKQLEDKEAKLRESCQVLDKQLGNLDFHSVSKEKVNLTKQRDKATVRKGELLGQLGEIHSQVNKLQREIDEPRFKESLKNFRKANYEIEVTRLCIEDLGQYRLALEWALIQFHSEKMEMINRLIREYWRKIYRGNDIDYIQVKTDEVSSDASADRRKTYNYRVVQSKNYSEIEMRGRCSAGQRVLASLIIRLALAETFSSNCGVLALDEPTTNLDRANINSLCEALNCIVEERQSQSNFMLIIITHDENFVSSLGKITSYHRVFRNEECKSVIRRVEAGPSKKALIDQ

- binding [4]: binds
B3: Nbs (Drosophila, endogenous) (protein, UniProt Q9VT40 1-818)
chain: MFVLTKDDEKFVLFPGKKVYTIGRLATDLIVAQDLSISRNHAQLLIQTEADGDDTLHIEDLGSRYGTFIFPKNSQKPRKVPAKTSTPLPVGTRLRFGANMSIWQVTQLKLVTTVSALTRSEVQELTKMLEPMGGTVTSNWTEECSHLTMNEVSVTVKLLHAMLENKPIVTFPYWRKMLQAAQSIHVKEGWPQPEDYQPTNIDVTWRPERTRLFAGKTFVFMNRKHFDMYGSVVQKAGATCKDINSGVRKTFLTKSDVIVIQYVPSSQSQATESINSIQDRYILEQNGRRIIQEYEIGMALIHCSITEFCNPTHKFISDSLPTTESVTSSMAFNSSIIVPNTERHSAQSNATPISELVVPESIECEMEQDASKPHSEDQASLRKRSHASTVDSSDEEKKSTLSKRAKSDIATKLTMKSKNAILLDSSLEEDVTPAPAPAPVQRVTRQSKAIAEEKSVHPPVPAASKHITRKTKQVFCVDSSDEENENARKPKETPAPTIPSMAKKKTEAPVATRISPRLNGKSLATNITNQPADKHAVPAKRPVLSVASSDEEDEGDLFQFRKSPQKPAETVVQPRIAGKGNAPARISVVDFLEKSQAQEPAPVPPQLESQSQTQPRKRLRLELLNESDSDDCDNLFNFADSKKKRKTQEAQRNDDSTDGLFNFNSERPSDHDDEDSRLTEPFVPETESKKQSKYIVAPRRDRPKKVDISGWLSCSRLNDNIKSEIDADSVKMETSIKADPDEEQWLAAMKDSIEVRMCNLNIVIRSQEEVDASLEDSVNKHGGRKNFKKFVKTKNPHPQKRIVALKSLRLADGMVTCV

- binding [5]: binds
- binding [7]: binds
B4: Nbs-HA (protein, UniProt Q9VT40 1-818)
chain: B3 chain
